# The campaign covered roughly 370,000 compounds. About 150 (0.041%) were called active. This list was built around the results that the source calls inconclusive (neither active nor inactive); the mix of calls is not that of the screen. Calls come from the whole dose curve; as a rule, active = well fitted inhibition curve with a large enough effect; inconclusive = small, poorly fitted or top-dose-only effect; inactive = flat fitted curve, though single readings scatter. Potencies of inconclusive entries are left out as doubtful fits.
# Molecular target: Beta-lactamase (Escherichia coli (strain K12)) (UniProt P00811)
# Chain of UniProt P00811 (P00811 whole entry, looked up): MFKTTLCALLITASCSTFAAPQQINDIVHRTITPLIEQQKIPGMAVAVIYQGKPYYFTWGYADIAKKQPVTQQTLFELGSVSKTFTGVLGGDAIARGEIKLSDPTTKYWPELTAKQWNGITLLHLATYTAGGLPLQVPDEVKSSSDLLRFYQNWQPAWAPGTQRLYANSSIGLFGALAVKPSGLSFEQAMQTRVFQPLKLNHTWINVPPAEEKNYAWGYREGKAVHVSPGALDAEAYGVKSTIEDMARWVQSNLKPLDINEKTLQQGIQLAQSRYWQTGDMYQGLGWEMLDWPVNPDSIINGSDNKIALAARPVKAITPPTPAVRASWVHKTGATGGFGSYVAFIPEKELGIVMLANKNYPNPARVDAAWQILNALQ
# Assay: qHTS Inhibitors of AmpC Beta-Lactamase (assay with detergent); note: nearly all actives have a fitted effect of over 25% in size;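 for activity change, negative = inhibition: 0% = no-compound wells and -100% = no-enzyme wells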
# Settings: AmpC hydrolysis of nitrocefin, absorbance 480 nm, 0.01% Triton; activity change, negative = inhibition: at 114 µM (top of the series)
# Procedure, shortened: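 20 mM phosphate pH 7.0 + 0.01% (detergent screen) or 0.0001% Triton X-100; 5.3 nM AmpC reagent; cpd preinc 15 min RT; nitrocefin (800 uM stock) to start; A480 q20 s × 4 min; Activity was normalised to no-enzyme and no-compound control wells.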
# Potency is the fitted concentration of half-maximal effect; tags give direction and shape of the fitted curve.
Structure (SMILES),"activity change, negative = inhibition",Potency
COc1ccc(OC)c2sc(N(Cc3cccnc3)C(=O)c3ccco3)nc12,inactive: 4.38%,–
COc1cccc(NC(=S)NCc2ccc(F)cc2)c1,–,"inconclusive [inhibitor, partial curve, poor fit]"
Cc1ccc(C)c(CN2C(=O)c3ccccc3S(=O)(=O)c3ccc(C(=O)NCCC4=CCCCC4)cc32)c1,–,"inconclusive [inhibitor, single point]"
CCCCCc1cc(=O)oc2c(C(CCN3CCN(c4ccccc4)CC3)c3ccc4c(c3)OCO4)c(OC)cc(OC)c12 (stereo unspecified),inactive: -2.64%,–
O=C(NCC1CCCO1)c1ccc2c3n(nc2c1)-c1ccccc1CO3 (stereo unspecified),inactive: -7.55%,–
Cc1ccc(C(=O)c2cn(Cc3ccc(Cl)cc3)c3nc(C)ccc3c2=O)cc1,–,"inconclusive [inhibitor, full curve, poor fit]"
O=C(CSc1nnc(-c2ccccc2)o1)Nn1cnnc1,–,"inconclusive [inhibitor, full curve, poor fit]"
Cc1ccc(C2CC(=O)NC(SCCC(C)C)=C2C#N)cc1 (stereo unspecified),–,"inconclusive [inhibitor, full curve]"
COc1cc(-c2nnc(SCc3cc(=O)oc4cc(O)c(O)cc34)o2)cc(OC)c1OC,inactive: -4.31%,–
CCN(Cc1ccccc1)C(=O)C1CCN(Cc2ccc(OC)c(OC)c2OC)CC1,–,"inconclusive [inhibitor, single point]"
CC(C)c1nnc(SCC(=O)NC2CCCCC2)n1C,–,"inconclusive [inhibitor, full curve, poor fit]"
CC(NCc1cccc(Cl)c1Cl)C(O)c1ccccc1 (stereo unspecified),–,"inconclusive [inhibitor, full curve]"
O=C(Nc1cccc(O)c1)C1CC(c2c(F)cccc2Cl)=NO1 (stereo unspecified),–,"inconclusive [inhibitor, full curve, poor fit]"
CC1CN(c2nc(-c3ccc(Br)cc3)nnc2-c2ccccc2)CC(C)N1 (stereo unspecified),inactive: -0.797%,–
CC(=O)c1cccc(NC(=O)NC(C)c2ccncc2)c1 (stereo unspecified),–,"inconclusive [inhibitor, partial curve, poor fit]"
O=C(CSc1nc2ccccc2c(=O)n1Cc1ccco1)Nc1cccc(O)c1,inactive: 4.41%,–
Fc1c(F)c(F)c(/C=N/NC(=S)Nc2cccnc2)c(F)c1F,–,"inconclusive [inhibitor, full curve, poor fit]"
CCNC(=O)NC(=O)C(C)OC(=O)c1oc2ccc(OCC)cc2c1C (stereo unspecified),–,"inconclusive [inhibitor, full curve, poor fit]"
COc1ccc(NC(=O)CCS(=O)(=O)c2ccc3c(c2)CCCN3C(C)=O)cc1Cl,inactive: 3.83%,–
COc1ccc(C(CNC(=O)c2cc3c(s2)CCC(C)C3)N2CCOCC2)cc1 (stereo unspecified),–,"inconclusive [inhibitor, full curve, poor fit]"
CCOc1ccc(C(=O)Nc2cnn(Cc3ccc(Cl)c(Cl)c3)c2)cc1,inactive: -1.47%,–
CCN(CC)S(=O)(=O)c1ccc2nc(NC(=O)c3cncc(Br)c3)sc2c1,inactive: 17.2%,–

Structure (SMILES),"activity change, negative = inhibition",Potency
O=C(O)c1cccc(-n2cccc2/C=C2/NC(=O)N(c3cccc(Cl)c3)C2=O)c1,inactive: 2.58%,–
COc1ccc(OC)c(N2C(=O)CC(C(C)c3ccccc3)C2=O)c1 (stereo unspecified),–,"inconclusive [inhibitor, partial curve, poor fit]"
Cc1ccc(S(=O)(=O)N(Cc2ccccc2F)C(=O)N2CCN(C)CC2)cc1,–,"inconclusive [inhibitor, single point]"
CC(C)CNC(=O)c1ccccc1NC(=O)c1ccccc1N(C)S(=O)(=O)c1ccccc1,–,"inconclusive [inhibitor, single point]"
COc1ccccc1N1CCN(C(=O)CSc2nnc(NC(=O)C3CCC3)s2)CC1,–,"inconclusive [inhibitor, full curve, poor fit]"
c1c2c(cc3sc(N4CCOCC4)nc13)OCO2,–,"inconclusive [inhibitor, partial curve, poor fit]"
COc1ccc(C2N=C(N)Nc3nc4ccccc4n32)cc1 (stereo unspecified),inactive: -6.19%,–
COc1ccc(NC(C)C(=O)Nc2ccc(C(C)(C)C)cc2)cc1Cl (stereo unspecified),inactive: 1.51%,–
C=CCn1c(Sc2ccccc2)nc2c1c(=O)[nH]c(=O)n2C,–,"inconclusive [inhibitor, partial curve, poor fit]"
Cc1cc2cc(CNS(=O)(=O)N(C)C)ccc2[nH]1,–,"inconclusive [inhibitor, partial curve]"
COc1ccc(N2CCN(C(=O)COC(=O)CCOc3ccc(C)cc3)CC2)cc1,–,"inconclusive [inhibitor, single point]"
OCC1(Cc2cccc(Cl)c2)CCCN(Cc2cn[nH]c2C2CCCCC2)C1 (stereo unspecified),inactive: 2.17%,–
O=C(Nc1cnc(N2CCN(c3ccccc3)CC2)c(C(=O)O)c1)c1cccs1,inactive: 9.77%,–
COc1ccc(Br)cc1CN(C)C(=O)c1ccccc1OCc1c(C)noc1C,–,"inconclusive [inhibitor, single point]"
N#CCC(=O)N/N=C/c1cc([N+](=O)[O-])ccc1N1CCCC1,–,"inconclusive [inhibitor, single point]"
CCn1c(SCC(=O)Nc2ccc(C(C)=O)cc2)nc2nc3c(cc2c1=O)CCCC3,–,"inconclusive [inhibitor, full curve]"
Cc1ccc(C)c(N(CC(=O)NCCC2=CCCCC2)S(C)(=O)=O)c1,–,"inconclusive [inhibitor, full curve, poor fit]"
COc1ccc(NC(=O)CCC(=O)c2cc(C)sc2C)cc1,–,"inconclusive [inhibitor, partial curve, poor fit]"
O=C(CSc1nc2ccccc2[nH]1)Nc1cccc(S(=O)(=O)N2CCOCC2)c1,–,"inconclusive [inhibitor, full curve, poor fit]"
Cc1ccc(NC(=O)c2cccc(NC(=O)CC3SC(N4CCCCC4)=NC3=O)c2)nc1 (stereo unspecified),–,"inconclusive [inhibitor, full curve, poor fit]"
O=C(N/N=C/c1ccc(O)cc1)c1nc(-c2ccccc2)n(-c2ccccc2)n1,–,"inconclusive [inhibitor, single point]"
CCn1c(SCc2nc(-c3ccc(OC)c(OC)c3)no2)nnc1-c1cccs1,–,"inconclusive [inhibitor, partial curve, poor fit]"

Structure (SMILES),"activity change, negative = inhibition",Potency
O=Cc1cccc(Oc2ncccn2)c1,–,"inconclusive [inhibitor, full curve]"
Cc1ccc2nc(COc3ccccc3NC(=O)c3ccc(F)cc3)cc(=O)n2c1,inactive: -9.36%,–
COc1cc(C(=O)OC(C)C(=O)NC(=O)NC2CCCCC2)ccc1OC(F)F (stereo unspecified),inactive: -2.16%,–
Cc1onc(-c2ccccc2Cl)c1C(=O)Nc1nnc(-c2cccc([N+](=O)[O-])c2)s1,–,"inconclusive [inhibitor, full curve, poor fit]"
Cc1[nH]n(-c2cccc([N+](=O)[O-])c2)c(=O)c1-c1ccccc1,–,"inconclusive [inhibitor, partial curve]"
C#CCOCCOCCOCCNc1nc(N2CCN(C(=O)CCCCCCCCCCNC(=O)[C@@H](CCC(=O)O)n3cc(CCCCCN)nn3)CC2)nc(N2CCN(C(=O)CCCCCCCCCCNC(=O)[C@H](CCCCN)n3cc(C[C@@H](C)CC)nn3)CC2)n1,inactive: -0.0309%,–
CC(C)(O)C#Cc1ccc(C(=O)N2CCN(c3ccc(Cl)cc3)CC2)cc1,–,"inconclusive [inhibitor, single point]"
Cc1ccc(CN2CCN(/N=C/c3sccc3C)CC2)c(C)c1,inactive: -5.68%,–
COc1cc(OC)cc(C(=O)Nc2ncc3c(n2)CC(C)CC3=O)c1 (stereo unspecified),–,"inconclusive [inhibitor, full curve, poor fit]"
CCc1nnc(NC(=O)C2CCCN(c3nc4ccccc4s3)C2)s1 (stereo unspecified),–,"inconclusive [inhibitor, partial curve, poor fit]"
CCC(C)c1ccc(NC(=O)C2CCN(c3ncccn3)CC2)cc1 (stereo unspecified),inactive: 2.51%,–
COc1ccc(CNC(=O)C(=O)NC2CCC(C)CC2)cc1 (stereo unspecified),inactive: -3.59%,–
Cc1cc(C)n(-c2ccc([N+](=O)[O-])cc2)n1,–,"inconclusive [inhibitor, full curve, poor fit]"
Cc1ccc(-c2cc(C(=O)Nc3cccc(S(=O)(=O)N(C)C)c3)c3ccccc3n2)o1,inactive: -5.05%,–
Cc1nn(CC(=O)OCCOc2ccc(Br)cc2)c(C)c1[N+](=O)[O-],–,"inconclusive [inhibitor, partial curve]"
Cc1cc(NC(=O)c2noc3c2CCCCC3)nn1Cc1ccc(Cl)cc1,–,"inconclusive [inhibitor, full curve, poor fit]"
O=[N+]([O-])c1cccc(CSc2nnc3ccccn23)c1,–,"inconclusive [inhibitor, full curve, poor fit]"
C[C@@H](CSc1ccccc1)CN1CC[C@H](NC(=O)OCc2ccccc2)CCC1=O,inactive: 0.396%,–
Cc1nc(C)c(NC(=O)OC(C)C)cc1NC(=O)OC(C)C,–,"inconclusive [inhibitor, partial curve]"
CCOc1ccc(C(=O)NC(=S)Nc2ccccc2N2CCCCC2)cc1[N+](=O)[O-],–,"inconclusive [inhibitor, full curve, poor fit]"
COc1ccc(C)cc1N(CC(=O)Nc1ccc(S(=O)(=O)N2CCCC2)cc1)S(C)(=O)=O,–,"inconclusive [inhibitor, full curve, poor fit]"
CC1CCN(S(=O)(=O)c2nnc(NC(=O)c3cccc(Cl)c3)s2)CC1,–,"inconclusive [inhibitor, partial curve, poor fit]"
